According to PubChem BioAssay (Tox21):
Where “and” joins values, the source holds several entries; their conditions need not be identical. Equal entries are not always repeated. This list was built around the results that the source calls inconclusive (neither active nor inactive); the mix of calls is not that of the screen. For some of these results: Potencies of inconclusive entries are doubtful fits and often do not repeat. A structure can be active in one record and inactive in another. Calls of active or inactive are those of the source. The call rests on the fitted dose curve; in most records, active means well fitted curve in the direction sought with a large enough effect in the repeat runs; inconclusive means weak or mixed curves; inactive means no such curve, though single readings can be large; an effect the other way counts as inactive or inconclusive.

Assays:
[1] = qHTS assay to identify small molecule antagonists of the estrogen related receptor (ERR) signaling pathway from Tox21 library - cell viability counter screen (AID 1224834); further: potency means the concentration at half of the fitted maximal effect; nearly all actives have a fitted effect of over 30% in size
Summary of the method: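 Fluorescence from CellTiter-Fluor gives the viability read-out, taken 30 min after reagent addition. Before that, ERR cells seeded 6 h earlier were incubated with compounds for 17.5 h at 37 C.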

[2] = qHTS assay to identify small molecule agonists of the constitutive androstane receptor (CAR) signaling pathway - cell viability counter screen (AID 1224836); further: nearly all actives have a fitted effect of over 45% in size; further: potency means the concentration at half of the fitted maximal effect
Summary of the method: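 Compound titrations (15 concentrations) went onto HepG2-CYP2B6-hCAR cells 4 h after seeding, alongside PK11195 at a final 0.75 uM; a 23 h, 37 C/5% CO2 incubation preceded CellTiter-Fluor viability measurement.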

[3] = qHTS assay to identify small molecule antagonists of the constitutive androstane receptor (CAR) signaling pathway - cell viability counter screen (AID 1224837); further: nearly all actives have a fitted effect of over 45% in size; further: potency means the concentration at half of the fitted maximal effect
Summary of the method: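 HepG2-CYP2B6-hCAR cells, 2500/well, 4 hr pre-incubation; compound titration, 15 conc.; CITCO 50 nM final; 23 hr, 37 C/5% CO2; CellTiter-Fluor, fluorescence intensity.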

[4] = biological target: Luciferin 4-monooxygenase (Photinus pyralis) (UniProt P08659); assay: qHTS assay to identify small molecule inhibitors of firefly luciferase (AID 1224835); further: series mostly up to about 120 µM; on the % scale 0 is the no-effect control and ±100 the full control effect; nearly all actives have a fitted effect of over 25% in size
Chain of UniProt P08659 (P08659 whole entry, looked up): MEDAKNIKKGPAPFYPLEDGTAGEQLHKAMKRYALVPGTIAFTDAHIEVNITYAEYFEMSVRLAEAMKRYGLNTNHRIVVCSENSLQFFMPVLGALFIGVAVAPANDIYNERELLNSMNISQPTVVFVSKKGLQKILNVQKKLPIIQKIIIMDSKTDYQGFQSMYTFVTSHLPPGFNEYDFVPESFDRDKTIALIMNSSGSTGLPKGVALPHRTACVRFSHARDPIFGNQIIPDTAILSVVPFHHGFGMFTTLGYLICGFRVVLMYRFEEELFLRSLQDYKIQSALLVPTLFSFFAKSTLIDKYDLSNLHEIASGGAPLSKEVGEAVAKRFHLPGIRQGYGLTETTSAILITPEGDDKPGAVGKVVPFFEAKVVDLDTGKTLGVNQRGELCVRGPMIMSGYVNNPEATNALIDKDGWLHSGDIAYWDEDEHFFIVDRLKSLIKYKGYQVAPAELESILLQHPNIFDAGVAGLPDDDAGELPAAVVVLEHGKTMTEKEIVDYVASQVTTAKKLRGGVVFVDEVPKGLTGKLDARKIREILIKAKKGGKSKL
Summary of the method: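 Quantitative HTS format; KM concentrations of both substrates. Purified P. pyralis FLuc activity quantified from luminescence images.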
Tags describe the fitted curve by direction and shape.

SMILES: CC[C@H](C)[C@H]1O[C@]2(C=C[C@@H]1C)C[C@@H]1C[C@@H](C/C=C(\C)[C@@H](O[C@H]3C[C@H](OC)[C@@H](O[C@H]4C[C@H](OC)[C@@H](NC)[C@H](C)O4)[C@H](C)O3)[C@@H](C)/C=C/C=C3\CO[C@@H]4[C@H](O)C(C)=C[C@@H](C(=O)O1)[C@]34O)O2
- Potency [1]: active: 8.63 µM
- Potency [2]: active: 12.2 µM
- Potency [3]: active: 9.69 µM

SMILES: O=C(CCl)Nc1ccccc1
- Potency [1]: active: 30.6 µM
- Potency [2]: active: 48.6 µM
- Potency [3]: active: 48.6 µM

SMILES: C=CC[C@]1(O)CC[C@H]2[C@@H]3CCC4=CC(=O)CCC4=C3C=C[C@@]21C
- Potency [1]: inconclusive: 33.5 µM [cytotoxic, single point]
- Potency [2]: inconclusive: 29.8 µM [cytotoxic, partial curve, poor fit]
- Potency [3]: inconclusive: 29.8 µM [cytotoxic, partial curve, poor fit]

SMILES: II
- Potency [1]: inconclusive: 68.6 µM [cytotoxic, partial curve, poor fit]
- Potency [2]: inactive

SMILES: Nc1nc(N)c(N)c(N)n1
- Potency [1]: inconclusive: 54.8 µM
- Potency [2]: inconclusive: 54.8 µM [rising, partial curve]
- Potency [3]: inconclusive: 61.4 µM [rising, single point]

SMILES: C[C@]12C/C(=C/O)C(=O)C[C@@H]1CC[C@@H]1[C@@H]2CC[C@@]2(C)[C@H]1CC[C@]2(C)O
- Potency [1]: inconclusive: 29.8 µM [cytotoxic, single point]
- Potency [2]: inconclusive: 69.2 µM [cytotoxic]
- Potency [3]: inconclusive: 69.2 µM [cytotoxic, partial curve, poor fit]

SMILES: Nc1ccc(-c2ccccc2)cc1
- Potency [1]: active: 8.87 µM
- Potency [2]: inconclusive: 28.1 µM [cytotoxic, partial curve]
- Potency [3]: inconclusive: 19.9 µM [cytotoxic, full curve]

SMILES: IC(I)=C(I)I
- Potency [1]: active: 27.3 µM
- Potency [2]: active: 30.6 µM

SMILES: CCNc1nc(NC(C)(C)C)nc(SC)n1
- Potency [1]: inconclusive: 67.7 µM [cytotoxic, partial curve, poor fit]
- Potency [3]: inactive

SMILES: C[C@H]1CCC[C@H](O)CCCCCc2cc(O)cc(O)c2C(=O)O1
- Potency [1]: active: 61.6 µM
- Potency [3]: inconclusive: 69.1 µM [cytotoxic, single point]

SMILES: Cc1cccc(N=Nc2ccc(N(C)C)cc2)c1
- Potency [1]: inconclusive: 27.8 µM [cytotoxic, partial curve] and active: 27.3 µM
- Potency [2]: inconclusive: 96.9 µM [cytotoxic, partial curve, poor fit]

SMILES: Cc1ccc(N=CN(C)C=Nc2ccc(C)cc2C)c(C)c1
- Potency [1]: inconclusive: 61.4 µM [cytotoxic] and inconclusive: 68.5 µM [cytotoxic, single point]
- Potency [2]: inconclusive: 61.4 µM [cytotoxic, single point] and inconclusive: 68.5 µM [cytotoxic, single point]
- Potency [3]: inconclusive: 68.9 µM [cytotoxic, single point] and inconclusive: 68.5 µM [cytotoxic, single point]

SMILES: O=C1CN=C(c2ccccc2)c2cc(Cl)ccc2N1CC1CC1
- Potency [1]: inconclusive: 57.2 µM [cytotoxic, partial curve]
- Potency [2]: inactive

SMILES: CCCCCCCCn1cc[n+](C)c1
- Potency [1]: inconclusive: 15.5 µM [cytotoxic, full curve] [middle of 4 runs]
- Potency [2]: inconclusive: 15.2 µM [cytotoxic, full curve] [middle of 4 runs]

SMILES: Nc1ccc(N=Nc2ccc(-c3ccc(N=Nc4c(S(=O)(=O)O)cc5cc(S(=O)(=O)O)c(N=Nc6ccccc6)c(O)c5c4N)cc3)cc2)c(N)c1
- Potency [1]: active: 31.3 µM
- Potency [3]: inconclusive: 12.5 µM [cytotoxic, partial curve, poor fit]

SMILES: CCCN(CCOc1c(Cl)cc(Cl)cc1Cl)C(=O)n1ccnc1
- Potency [1]: inconclusive: 55.6 µM [cytotoxic, partial curve] and inconclusive: 43.3 µM [cytotoxic, partial curve]
- Potency [3]: inconclusive: 70.1 µM [cytotoxic] and inconclusive: 68.6 µM [cytotoxic]

SMILES: Nc1ccc([N+](=O)[O-])cc1[N+](=O)[O-]
- Potency [1]: inconclusive: 59.6 µM [cytotoxic, partial curve]
- Potency [2]: inconclusive: 26.6 µM [cytotoxic, partial curve]
- Potency [3]: inconclusive: 47.3 µM [cytotoxic, partial curve]

SMILES: COc1cccc(C(=O)NN(C(=O)c2cc(C)cc(C)c2)C(C)(C)C)c1C
- Potency [1]: inconclusive: 24.3 µM [cytotoxic, partial curve]
- Potency [2]: inconclusive: 61.1 µM [cytotoxic, partial curve, poor fit]
- Potency [3]: inconclusive: 19.3 µM [cytotoxic, partial curve, poor fit]

SMILES: CC1=C2C[C@H]3[C@@H](CC=C4C[C@@H](O)CC[C@@]43C)[C@@H]2CC[C@]12O[C@@H]1C[C@H](C)CN[C@H]1[C@H]2C
- Potency [1]: active: 26.6 µM
- Potency [2]: inconclusive: 23.7 µM [cytotoxic, partial curve]

SMILES: N#CCC#N
- Potency [1]: inconclusive: 68.6 µM [cytotoxic, single point]
- Potency [2]: active: 48.6 µM
- Potency [3]: inconclusive: 68.6 µM [cytotoxic, single point]

SMILES: COc1cc(C=O)cc2c1[C@H](COC(N)=O)[C@]1(OC(C)=O)ON2C[C@H]2[C@@H]1N2C(C)=O
- Potency [1]: inconclusive: 5.45 µM [cytotoxic, full curve]
- Potency [4]: inactive
- Potency [3]: active: 0.433 µM

SMILES: CC(c1ccc(O)cc1)c1ccc(O)cc1
- Potency [1]: inconclusive: 51.1 µM [cytotoxic, partial curve]
- Potency [3]: inconclusive: 64.3 µM [cytotoxic, partial curve, poor fit]

SMILES: CC(C)(C)C(O)C(Oc1ccc(Cl)cc1)n1cncn1 (configuration not stated)
- Potency [1]: inconclusive: 15.4 µM [cytotoxic, single point]
- Potency [2]: inconclusive: 77 µM [cytotoxic, partial curve, poor fit]

SMILES: Nc1ccc(-c2ccc(N)c(Cl)c2)cc1Cl
- Potency [1]: inconclusive: 34.6 µM [cytotoxic, partial curve] and inconclusive: 64 µM [cytotoxic, partial curve]
- Potency [2]: inconclusive: 54.5 µM [cytotoxic, partial curve]
- Potency [3]: inconclusive: 54.5 µM [cytotoxic, single point]

SMILES: CCCC1COC(Cn2cncn2)(c2ccc(Cl)cc2Cl)O1 (configuration not stated)
- Potency [2]: inconclusive: 69.8 µM [cytotoxic, partial curve, poor fit]
- Potency [3]: inconclusive: 69.8 µM [cytotoxic, partial curve, poor fit] and inconclusive: 68.6 µM [cytotoxic]

SMILES: NNC(=O)c1cccnc1
- Potency [2]: inactive

SMILES: C=CC(=O)OCC(C)O (configuration not stated)
- Potency [2]: inactive

SMILES: OCCBr
- Potency [2]: inactive
- Potency [3]: inactive

SMILES: CC1(C)CC/C(=C/c2ccc(Cl)cc2)C1(O)Cn1cncn1 (configuration not stated)
- Potency [2]: inconclusive: 60.8 µM [cytotoxic, partial curve, poor fit]
- Potency [3]: active: 68.2 µM

SMILES: O=[N+]([O-])O.O=[N+]([O-])O.[Cd]
- Potency [2]: active: 7.7 µM

SMILES: CCCCCc1cc(O)cc(O)c1
- Potency [2]: inconclusive: 61.1 µM [cytotoxic]

SMILES: C=CCOC(Cn1ccnc1)c1ccc(Cl)cc1Cl (configuration not stated)
- Potency [2]: inconclusive: 61.1 µM [cytotoxic, single point]

SMILES: CC[n+]1ccccc1
- Potency [2]: inconclusive: 17.1 µM [cytotoxic, full curve]
- Potency [3]: inconclusive: 27.1 µM [cytotoxic, partial curve]

SMILES: N#Cc1ccc(Cl)cc1
- Potency [2]: inactive

SMILES: [Hg+2].[I-].[I-]
- Potency [2]: active: 34.4 µM
- Potency [3]: active: 30.6 µM

SMILES: COc1ccc2c(c1OC)C(=O)O[C@@H]2[C@H]1c2cc3c(cc2CCN1C)OCO3
- Potency [2]: active: 7.62 µM
- Potency [3]: active: 7.62 µM

SMILES: CON(C)C(=O)Nc1ccc(Cl)cc1
- Potency [2]: inactive

SMILES: COP(=O)(OC)OC
- Potency [2]: inconclusive: 61.6 µM [cytotoxic, partial curve, poor fit]

SMILES: [Cl][Sn]([c]1ccccc1)([c]1ccccc1)[c]1ccccc1
- Potency [2]: active: 3.66 µM

SMILES: CC(=O)[O-].CC(=O)[O-].[Hg+2]
- Potency [2]: active: 7.7 µM
- Potency [3]: active: 4.86 µM

SMILES: O=C(O)c1ccccn1
- Potency [2]: inactive

SMILES: CC(=O)C(C)(C)C
- Potency [2]: inactive

SMILES: O=C1C[C@@H]2OCC=C3CN4CC[C@]56c7ccccc7N1[C@H]5[C@H]2[C@H]3C[C@H]46
- Potency [2]: inconclusive: 23.7 µM [cytotoxic, partial curve]
- Potency [3]: inconclusive: 23.7 µM [cytotoxic, partial curve]

SMILES: CCc1ccc(C(=O)NN(C(=O)c2cc(C)cc(C)c2)C(C)(C)C)cc1
- Potency [2]: inconclusive: 5.45 µM [cytotoxic, full curve]
- Potency [3]: inconclusive: 4.86 µM [cytotoxic, full curve]

SMILES: CCC(OC(C)=O)C(CC(C)NC)(c1ccccc1)c1ccccc1 (configuration not stated)
- Potency [2]: active: 69.2 µM
- Potency [3]: active: 69.2 µM

SMILES: c1ccc(N=NNc2ccccc2)cc1
- Potency [2]: inconclusive: 63.3 µM [cytotoxic]
- Potency [3]: inconclusive: 56.4 µM [cytotoxic]

SMILES: Cc1cc(C(F)(C(F)(F)F)C(F)(F)F)ccc1NC(=O)c1cccc(I)c1C(=O)NC(C)(C)CS(C)(=O)=O
- Potency [2]: inactive

SMILES: O=C(c1ccccc1)C(Cl)Cl
- Potency [2]: active: 61.1 µM

SMILES: N#CC(CCc1ccc(Cl)cc1)(Cn1cncn1)c1ccccc1 (configuration not stated)
- Potency [2]: inconclusive: 48.6 µM [cytotoxic, partial curve]
- Potency [3]: inconclusive: 48.6 µM [cytotoxic, partial curve]
